# Laboratory results published in PubChem BioAssay (Tox21).
# The shares of active, inactive and inconclusive entries below differ from those in the screen. For part of these data: No potency is given beside an inconclusive call; the fits are too rough. The source made the active and inactive calls. The call rests on the fitted dose curve; in most records, active means well fitted curve in the direction sought with a large enough effect in the repeat runs; inconclusive means weak or mixed curves; inactive means no such curve, though single readings can be large; an effect the other way counts as inactive or inconclusive.
# Assays:
# [1] = A CellTox Green Cytotoxicity Assay to monitor cytotoxicity in HEK293 cells - 32 hour (AID 1224881); further: nearly all actives have a fitted effect of over 40% in size; further: potency means the concentration at half of the fitted maximal effect
# In short: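 Fluorescence intensity, read at 0, 8, 16, 24, 32 and 40 h of compound treatment, reflected dye binding to DNA of dead HEK293 cells; compounds (23 nL, DMSO) were added 5 h after plating cells with reagent.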
# [2] = qHTS RealTime-Glo MT Cell Viability Assay in HepG2 cells - 0 hour (AID 1224889); further: nearly all actives have a fitted effect of over 50% in size
# In short: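 Compound treatment began 5 h after plating HepG2 cells (600/well) with NanoLuc luciferase and prosubstrate. Plates stayed at 37 C for 40 h; luminescence was captured at six time points, 0 h through 40 h.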
# [3] = target: Androgen receptor (Homo sapiens) (UniProt P10275); assay: qHTS assay to identify small molecule antagonists of the androgen receptor (AR) signaling pathway using the MDA cell line in the presence of 0.5 nM R1881 (AID 1259243); further: nearly all actives have a fitted effect of over 50% in size; further: potency means the concentration at half of the fitted maximal effect
# Sequence of UniProt P10275 (P10275 whole entry, looked up): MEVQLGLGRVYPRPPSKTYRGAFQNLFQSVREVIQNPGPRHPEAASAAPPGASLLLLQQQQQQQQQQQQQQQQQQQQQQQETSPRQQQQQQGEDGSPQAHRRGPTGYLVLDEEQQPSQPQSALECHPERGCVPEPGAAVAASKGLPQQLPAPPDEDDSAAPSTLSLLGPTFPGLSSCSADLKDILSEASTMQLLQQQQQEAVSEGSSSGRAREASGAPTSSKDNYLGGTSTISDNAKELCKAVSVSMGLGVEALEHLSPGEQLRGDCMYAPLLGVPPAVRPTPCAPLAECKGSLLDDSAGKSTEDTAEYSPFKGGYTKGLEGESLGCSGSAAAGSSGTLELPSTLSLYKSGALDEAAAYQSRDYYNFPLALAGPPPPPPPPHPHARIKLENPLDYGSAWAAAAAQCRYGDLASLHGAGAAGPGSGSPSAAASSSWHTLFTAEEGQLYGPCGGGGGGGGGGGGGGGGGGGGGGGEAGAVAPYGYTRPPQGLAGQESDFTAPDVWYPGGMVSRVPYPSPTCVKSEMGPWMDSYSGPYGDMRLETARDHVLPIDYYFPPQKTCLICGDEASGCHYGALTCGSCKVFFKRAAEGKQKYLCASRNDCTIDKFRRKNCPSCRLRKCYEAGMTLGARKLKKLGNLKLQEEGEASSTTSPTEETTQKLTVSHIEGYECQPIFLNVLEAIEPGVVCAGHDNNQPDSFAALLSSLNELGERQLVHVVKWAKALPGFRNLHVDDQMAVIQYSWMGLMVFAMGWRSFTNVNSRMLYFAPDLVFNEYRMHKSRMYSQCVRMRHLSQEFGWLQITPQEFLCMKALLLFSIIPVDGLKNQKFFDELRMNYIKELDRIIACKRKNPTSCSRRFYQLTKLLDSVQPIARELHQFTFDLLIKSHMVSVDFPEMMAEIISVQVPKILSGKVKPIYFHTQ
# In short: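 Reporter cells cultured without CO2 receive test chemicals, then 0.5 nM R1881 final; after 16 hr at 37C, ONE-Glo is added and light output recorded.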
# [4] = target: Estrogen receptor (Homo sapiens) (UniProt P03372); assay: qHTS assay to identify small molecule antagonists of the estrogen receptor alpha (ER-alpha) signaling pathway using the BG1 cell line in the presence of 0.1 nM 17-beta-estradiol (AID 1259244); further: nearly all actives have a fitted effect of over 50% in size; further: potency means the concentration at half of the fitted maximal effect
# Sequence of UniProt P03372 (P03372 whole entry, looked up): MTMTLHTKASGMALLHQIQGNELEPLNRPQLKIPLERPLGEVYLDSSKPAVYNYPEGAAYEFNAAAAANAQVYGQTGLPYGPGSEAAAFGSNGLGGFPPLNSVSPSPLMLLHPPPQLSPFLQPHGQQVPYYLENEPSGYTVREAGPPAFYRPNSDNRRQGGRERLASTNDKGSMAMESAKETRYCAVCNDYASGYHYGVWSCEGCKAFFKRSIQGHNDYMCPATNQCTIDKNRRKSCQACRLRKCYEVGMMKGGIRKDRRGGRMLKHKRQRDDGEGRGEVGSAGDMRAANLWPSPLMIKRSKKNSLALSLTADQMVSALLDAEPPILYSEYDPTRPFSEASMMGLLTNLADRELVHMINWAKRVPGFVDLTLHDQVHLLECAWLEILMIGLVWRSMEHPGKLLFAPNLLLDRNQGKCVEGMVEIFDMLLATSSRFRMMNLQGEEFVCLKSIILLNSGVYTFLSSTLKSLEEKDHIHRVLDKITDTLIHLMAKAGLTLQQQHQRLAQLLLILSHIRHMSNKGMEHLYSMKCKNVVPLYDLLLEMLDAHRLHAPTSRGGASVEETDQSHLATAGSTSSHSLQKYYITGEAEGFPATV
# In short: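 Estradiol at 0.1 nM (final) stimulates the endogenous ER-alpha of VM7Luc4E2 cells carrying an ERE-driven luciferase; compounds are co-incubated 22 h at 37C and luciferase output quantified by luminescence.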
# [5] = qHTS assay to identify small molecule agonists of the sonic hedgehog signaling (Shh) pathway - cell viability counter screen (AID 1259366); further: potency means the concentration at half of the fitted maximal effect; nearly all actives have a fitted effect of over 50% in size
# In short: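 Cytotoxicity counter screen: CellTiter-Fluor reagent added after 23 h compound exposure, then 1 h at 37C and fluorescence read. Cells were 3T3 Gli1-Luc, seeded 2,000 per well and dosed 4 h post-plating.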
# [6] = qHTS assay to identify small molecule antagonists of the sonic hedgehog signaling (Shh) pathway - cell viability counter screen (AID 1259367); further: potency means the concentration at half of the fitted maximal effect; nearly all actives have a fitted effect of over 55% in size
# In short: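 Cells: 3T3 Gli1-Luc, 2,000/well, 4 hr pre-incubation. Compounds in DMSO, then conditioned medium. Incubation 24 hr, 37C, 5% CO2. CellTiter-Fluor at 23 hr, 1 hr, fluorescence.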
# [7] = qHTS assay to identify small molecule antagonists of the estrogen receptor alpha (ER-alpha) signaling pathway using the BG1 cell line in the presence of 0.1 nM 17-beta-estradiol - cell viability counter screen (AID 1259241); further: nearly all actives have a fitted effect of over 40% in size
# In short: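 Cytotoxicity counter-screen: live-cell protease activity measured by fluorescence (30 min reagent step) in the same wells. Cells were VM7Luc4E2 with endogenous ER-alpha and ERE-driven luciferase, treated 22 hr at 37C alongside 0.1 nM 17beta-estradiol final.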
# [8] = qHTS RealTime-Glo MT Cell Viability Assay in HEK293 cells - 8 hour (AID 1224887); further: nearly all actives have a fitted effect of over 50% in size; further: potency means the concentration at half of the fitted maximal effect
# In short: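 Viable HEK293 cells reduce a cell-permeant prosubstrate; the product diffuses out and is consumed by NanoLuc in the medium to give light. Compounds went in after a 5 h incubation and plates were read over the treatment course.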
# [9] = qHTS assay to identify small molecule HDAC inhibitors (AID 1259364);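 further: wild-type HCT-116 cells with endogenous class I/II HDAC activity; potency means the concentration at half of the fitted maximal effect; nearly all actives have a fitted effect of over 45% in size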
# In short: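 Read-out: luminescence of HDAC-Glo I/II reagent, 30 min RT, reflecting class I/II deacetylase activity in whole HCT-116 cells pre-exposed 2 h to DMSO-dissolved compounds.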
# Tags describe the fitted curve by direction and shape.
structure (smiles),measurement,setting,value
c1ccc(-c2ccccc2-c2ccccc2)cc1,Potency,[1],inactive
same,Potency,[2],inactive
same,Potency,[3],"inconclusive [inhibitor, full curve]"
same,Potency,[4],"inconclusive [inhibitor, single point]"
same,Potency,[5],"inconclusive [cytotoxic, single point]"
same,Potency,[6],active: 43.3 µM
c1ccc(-c2nc3ccccc3[nH]2)cc1,Potency,[1],inactive
same,Potency,[7],inactive
O=[N+]([O-])c1ccc(Oc2ccc([N+](=O)[O-])cc2)cc1,Potency,[1],inactive
same,Potency,[8],"inconclusive [cytotoxic, partial curve]"
CC1=CC(=C(c2ccc(N)cc2)c2ccc(N)cc2)C=CC1=N,Potency,[1],"inconclusive [activator, single point]"
same,Potency,[4],"inconclusive [inhibitor, single point]"
same,Potency,[5],"inconclusive [cytotoxic, single point]"
CC(C)(C)C(=O)CCc1ccc(Cl)cc1,Potency,[1],inactive
same,Potency,[8],inactive
OC1CCCCC1c1ccccc1 (configuration not stated),Potency,[1],"inconclusive [activator, partial curve, poor fit]"
same,Potency,[3],inactive
O=C1C=CCCC1,Potency,[1],inactive
same,Potency,[2],inactive
CCNS(=O)(=O)c1ccc(C)cc1,Potency,[1],"inconclusive [activator, full curve, poor fit]"
same,Potency,[7],inactive
CSc1ccc(Cl)cc1,Potency,[1],"inconclusive [activator, partial curve, poor fit]"
same,Potency,[4],inactive
CC(C)CC(=O)C1C(=O)c2ccccc2C1=O,Potency,[1],inactive
same,Potency,[8],"inconclusive [cytotoxic, partial curve, poor fit]"
same,Potency,[4],"inconclusive [inhibitor, single point]"
same,Potency,[9],"inconclusive [inhibitor, partial curve]"
